# Laboratory results taken from paper PMC4336329 (PLoS ONE, 2015).
# Out of some 310,000 compounds screened, about 14,000 (4.5%) showed an effect of 50% or more. Effects have a minus sign here. The list shows a part of the results. *1 amine or outer side, *2 acyl side, *3 side chain or, on linkers, in order; H or OH if unused. Where a SMILES comes first, the peptide text is derived from it. Bridges are numbered along the chain shown (N, C = ends). [ ]: non-standard residue; d: D form. ξ: configuration not given here. hSer(Ph(2-I,4-NO2,6-CO)) = O=C([C@H](CCOc1c(I)cc([N+](=O)[O-])cc1C(=O)[*:3])N[*:1])[*:2]; ξD = NC(CC(=O)O)C(=O)O
# Molecular target: human ether-à-go-go-related gene (hERG) potassium channel (human, UniProt Q12809)
# Experiment: primary screen, population patch clamp on CHO cells stably expressing hERG
# 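Also: peak tail current of the secondary pulse compared with the same well before compound.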
# Chain of human ether-à-go-go-related gene (hERG) potassium channel (Q12809 whole entry, looked up): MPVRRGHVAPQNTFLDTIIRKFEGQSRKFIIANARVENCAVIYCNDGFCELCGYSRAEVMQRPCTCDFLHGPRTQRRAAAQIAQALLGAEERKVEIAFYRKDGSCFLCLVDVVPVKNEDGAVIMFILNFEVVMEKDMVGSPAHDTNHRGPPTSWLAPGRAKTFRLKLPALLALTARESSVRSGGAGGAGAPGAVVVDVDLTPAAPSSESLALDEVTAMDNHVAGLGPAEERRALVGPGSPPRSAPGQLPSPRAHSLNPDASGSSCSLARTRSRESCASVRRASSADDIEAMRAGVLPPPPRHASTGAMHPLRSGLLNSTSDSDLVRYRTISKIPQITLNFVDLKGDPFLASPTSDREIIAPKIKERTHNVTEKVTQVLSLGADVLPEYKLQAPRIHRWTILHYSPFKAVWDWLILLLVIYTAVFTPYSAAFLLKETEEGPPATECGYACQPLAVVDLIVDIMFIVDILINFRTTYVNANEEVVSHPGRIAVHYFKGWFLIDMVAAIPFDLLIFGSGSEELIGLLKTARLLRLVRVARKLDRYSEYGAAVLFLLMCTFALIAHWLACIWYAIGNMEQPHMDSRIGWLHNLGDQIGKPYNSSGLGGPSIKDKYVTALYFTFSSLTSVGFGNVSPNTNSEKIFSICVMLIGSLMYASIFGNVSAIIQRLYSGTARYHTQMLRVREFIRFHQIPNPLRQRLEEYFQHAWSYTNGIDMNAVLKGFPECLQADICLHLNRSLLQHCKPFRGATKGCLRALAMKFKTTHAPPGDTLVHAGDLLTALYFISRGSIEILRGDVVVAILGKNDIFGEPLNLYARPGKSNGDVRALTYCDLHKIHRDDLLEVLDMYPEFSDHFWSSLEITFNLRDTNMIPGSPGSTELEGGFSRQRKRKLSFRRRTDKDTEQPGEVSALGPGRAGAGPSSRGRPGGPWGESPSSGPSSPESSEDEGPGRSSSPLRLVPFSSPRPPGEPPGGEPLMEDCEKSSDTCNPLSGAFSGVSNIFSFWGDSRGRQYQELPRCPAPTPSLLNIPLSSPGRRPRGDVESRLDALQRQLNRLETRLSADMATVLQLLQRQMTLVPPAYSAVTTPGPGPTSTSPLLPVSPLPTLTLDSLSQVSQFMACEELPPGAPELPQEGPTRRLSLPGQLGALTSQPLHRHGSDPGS
row,SMILES,"hERG current change (%, negative = inhibition) at 10uM [%]"
1,Cc1ccc(NC(=S)c2ccc3ccccc3n2)c(C)c1,25.4
2,O=C(/C=C/c1ccc(Cl)cc1Cl)Nc1cccc(S(=O)(=O)NC2=NCCCCC2)c1,-4.26
3,O=C1CC(NNc2nc3ccccc3s2)C(=O)N1c1ccccc1 (stereo not shown),-1.89
4,CN(C)c1ccc(/C=C2\C(=N)N3C(=NC2=O)Sc2cc(S(C)(=O)=O)ccc23)cc1,14.7
5,O=C(O)CN1C(=O)CC(Cc2ccccc2)C1=O (stereo not shown),8.43
6,COC(=O)C1=C(c2ccc(F)cc2F)C[C@@H]2CC[C@H]1N2C(=O)NCc1ccc(C(F)(F)F)cc1,-0.48
7,COC(=O)c1nc2cc(C)ccn2c1F,7.63
8,CC(C)C(NC(=O)c1ccccc1)C(=O)OCc1cc([N+](=O)[O-])cc2c1OCOC2 (stereo not shown),-16.5
9,Cl.NCC12CC3CC(C1)CC(c1ccc(Br)cc1)(C3)C2,-3.74
10,COc1ccc(-c2noc(CN(C)C3CCOCC3)n2)cc1,-8.59
11,CC(C)(C)NC(=O)C12CCC(C)(c3nc4ccccc4nc31)C2(C)C (stereo not shown),-1.94
12,Cc1cc(N2CCN(c3nc(-c4ccccc4)cs3)CC2)c2ccccc2n1,-23.3
13,Cc1ccc(C23CC4CC(CC(NC(=O)NCCN(C)C)(C4)C2)C3)cc1,-15.5
14,CCOC(=O)c1c(S(=O)(=O)N2CCc3ccccc32)c(C)n(C)c1C,-10.5
15,CCn1c(SCC(=O)Nc2ccc(S(N)(=O)=O)cc2)nnc1-c1ccccc1OC,2.47
16,Cc1cccc(NC(=O)C2CCCN(C(=O)Nc3ccccc3)C2)c1C (stereo not shown),-2.12
17,Cc1ncc([N+](=O)[O-])n1CC(=O)NC1CCCCC1,0.713
18,Cc1onc(-c2ccccc2)c1CNC(=O)Nc1ccccc1,13.3
19,Cc1ccccc1OCCC(=O)OCC(=O)NC1CCS(=O)(=O)C1 (stereo not shown),16.6
20,O=C(NCCc1ccccc1)C1c2ccccc2C(=O)N1Cc1cccs1 (stereo not shown),13.3
21,Cc1ccc2[nH]c3c(=O)n(CC(=O)Nc4ccccc4N4CCN(C)CC4)ncc3c2c1,-5.73
22,Cn1nnc2c(C(N)=O)ncn2c1=O,-13.3

row,SMILES,"hERG current change (%, negative = inhibition) at 10uM [%]"
1,Cc1ccc(C)c(NC(=O)C(Sc2ncnc3ccccc23)c2ccccc2)c1 (stereo not shown),-14.8
2,COc1ccc(Cl)cc1N(C)C(=O)CCNC(=O)Cn1cnc2ccccc2c1=O,6.62
3,O=C(NCc1ccccn1)C1CC(=O)N(C2CCCC2)C1 (stereo not shown),9.62
4,COc1ccc(Oc2cc(C(F)(F)F)cnc2C(N)=O)cc1,13.6
5,CC1(C)CC(=O)C(C=NCCN2CCN(C3CC(=O)N(c4ccc(Br)cc4)C3=O)CC2)=C(O)C1 (stereo not shown),-19.3
6,O=C(N1CCCCC1)C1(c2ccccc2)CCCCC1,4.43
7,CCC(C)(C)n1nnnc1CN1CCN(c2ccc(OC)cc2)CC1,-17
8,Cc1cccc(CSc2nnc(-c3cccs3)n2Cc2ccco2)c1,-38.1
9,CCOC(=O)c1[nH]c2ccc(OCC)cc2c1NC(=O)CN1CCN(c2ccccn2)CC1,-12.7
10,CN(C)S(=O)(=O)c1ccc(NC(=O)CNc2cc(S(=O)(=O)N3CCCC3)ccc2OCC(F)(F)F)cc1,-11.4
11,CC(=O)NCCc1ccc(S(=O)(=O)N2CCN(c3nc(-c4ccccc4)c(C)s3)CC2)cc1,16.6
12,S=C(NCc1ccco1)N1CCOCC1,12.6
13,CCCSc1nnc(NC(=O)CSc2sc3c(O)cc(=O)[nH]c3c2C#N)s1,-0.611
14,COc1ccc(C2C(C#N)=C(N)N(c3ncn[nH]3)C3=C2C(=O)CCC3)cc1 (stereo not shown),43
15,CC(=O)Nc1ccc(NC(=O)CSc2nc3nc(-c4cccs4)cc(C(F)(F)F)c3c(=O)[nH]2)cc1,16.5
16,Cc1ccc(NC(=O)c2c(-c3c(F)cccc3Cl)noc2C)cc1F,-8.29
17,CCN(CC)c1ccc(C(=O)OCC(=O)c2ccco2)cc1,22.1
18,O=C(c1cc2cc(C(F)(F)F)ccc2s1)N1CCOCC1,-13.4
19,CCOC(=O)c1ccc(NC(=S)N(CCCN2CCN(CC)CC2)Cc2cccs2)cc1,-69.1
20,O=C(/C=C/c1ccc(Cl)cc1)Nc1ccc(S(=O)(=O)Nc2ncccn2)cc1,4.45
21,COc1cccc(NC(=S)N2CCN(c3ccc([N+](=O)[O-])cc3)CC2)c1,-27.5
22,CCC(C(=O)N1CCN(c2cccc(Cl)c2)CC1)c1ccccc1 (stereo not shown),-3.5

row,SMILES,"hERG current change (%, negative = inhibition) at 10uM [%]"
1,O=c1[nH]cc(-c2ccc(Br)cc2)n1Cc1ccccc1,2.96
2,O=C(c1ccncc1)N1CCN(C(=O)c2ccco2)CC1,11.1
3,COc1ccc(C(=O)COC(=O)CN2C(=O)C3C4CCC(C4)C3C2=O)cc1 (stereo not shown),-17.9
4,COc1ccc(S(=O)(=O)NCC(=O)Nc2cccc(C)c2C)cc1OC,-11.5
5,Cc1cnc(C(=O)OCc2nc3ccsc3c(=O)[nH]2)cn1,10.8
6,Cc1ccc(NC(=O)CCn2c(=O)[nH]c3ccsc3c2=O)cc1,-10.5
7,Cc1cc(N2CCOCC2)nc2ccc(NC(=O)CCC(=O)N3CCN(c4ccc(F)cc4)CC3)cc12,21
8,CC(=O)Nc1sc2c(c1C(N)=O)CCN(Cc1ccccc1)C2.Cl,-23.3
9,CN(C)c1ccc(NC(=O)Cn2cc3c(n2)CCCC3)cc1,15.2
10,CCC(C)(C(=O)NC1CCCC1)N(Cc1cccs1)C(=O)c1ccccn1 (stereo not shown),3.24
11,COCC1CCCN(Cc2nc(C(c3ccccc3)c3ccccc3)no2)C1 (stereo not shown),-19.6
12,Cc1nccc2oc(=O)c(NC(=O)c3ccc(Cl)cc3)cc12,6.07
13,CCn1cc(Br)c(C(=O)N2CCN(c3ccccc3)CC2)n1,9.47
14,O=C(NCc1ccco1)/C(=C/C=C\c1ccccc1)NC(=O)c1ccc(Br)o1,-59.6
15,COc1ccc(NC(=O)COC(=O)CCCc2c[nH]c3ccccc23)cc1,-13.3
16,COC(=O)C1=C(c2cc3ccccc3s2)C[C@@H]2CC[C@H]1N2C(=O)NCC1CC1,-34
17,O=C(Nc1ccc(Oc2cccnc2)cc1)c1cccc([N+](=O)[O-])c1,-11
18,Cc1ccc(C(=O)N/C(=C\c2cn(-c3ccccc3)nc2-c2ccccc2)C(=O)N2CCOCC2)cc1,3.69
19,Cc1ccc(NC(=O)c2cc(S(=O)(=O)N(C)C)ccc2N2CCCC2)cc1S(=O)(=O)N(C)C,-26.5
20,O=C1c2ccccc2C(=O)C1c1ccccn1,6.76
21,O=C(COC(=O)c1ccc(CNS(=O)(=O)c2ccc(F)c(Cl)c2)cc1)NCC1CCCCC1,-8.23
22,COc1cc(/C=C2/NC(=O)N(CC(=O)Nc3cccc(C)c3)C2=O)ccc1OCC(N)=O,8.6

row,SMILES,"hERG current change (%, negative = inhibition) at 10uM [%]"
1,COC(=O)c1ccsc1NC(=O)CCc1ccccc1,8.69
2,N#Cc1cn(Cc2cccc(Cl)c2)c2ccccc12,1.82
3,Cc1cc(=O)[nH]c(SCC(=O)c2ccc(C(C)C)cc2)n1,4.27
4,Cc1cccc(C)c1NC(=O)NC1CCc2ccccc21 (stereo not shown),18.8
5,O=C(Nc1ccc(S(=O)(=O)N2CCCCC2)cc1)C1CC(=O)N(c2ccc(F)cc2)C1 (stereo not shown),11.2
6,Cc1cccc(N/N=C/c2ccccc2O)c1,18.7
7,CCOc1ccc(Br)cc1CNCCN1CCOCC1,1.31
8,Cn1nc(C(=O)NCc2cccs2)c2ccccc2c1=O,14.6
9,O=C(CN(c1ccccc1F)S(=O)(=O)c1ccccc1)Nc1ccccc1C(=O)N1CCOCC1,-10.3
10,CN(C(=O)N1CCN(c2ccccn2)CC1)c1ccccc1,7.47
11,CC1=[N+]([O-])C(C)(C)C(C)N(O)C1=O (stereo not shown),4.15
12,NC(=O)C1CCN(C(=S)NCc2ccc3c(c2)OCO3)CC1,22.6
13,O=C(Nc1ccc2c(c1)OCO2)c1cncc(Br)c1,17.9
14,CC(C)C(=O)Nc1cc(S(=O)(=O)Nc2cccc(Cl)c2)ccc1Cl,11.2
15,COc1cccc(/C=C2/CN(C)CC3=C2OC(N)=C(C#N)C3c2cccc(OC)c2)c1 (stereo not shown),-16.1
16,Cc1cc(C(=O)Nc2sc(C)c(C)c2C#N)no1,-0.844
17,"C[C@@H]1NC(=O)c2cc([N+](=O)[O-])cc(I)c2OCC[C@@H](C(=O)NC(CC(=O)O)C(N)=O)NC(=O)[C@H](CCC(=O)O)NC1=O (stereo partly shown) (AE[hSer(Ph(2-I,4-NO2,6-CO))][ξD]-NH2; lactam N-3)",-2.07
18,CC(C)(C)c1ccccc1NC(=O)c1c(O)c2cccc3c2n(c1=O)CC3,19.2
19,COc1cc(/C=C/C(=O)OCC(=O)Nc2cc(S(=O)(=O)N3CCCCC3)ccc2C)ccc1O,0.0957
